From US20230181756A1, “CCR7 ANTIBODY DRUG CONJUGATES FOR TREATING CANCER” (Novartis AG, priority 2020, published 2023) come the findings set out here.

For one assay, the system named is CCR7 on Rat CD4+ T cells. Nature of the assay: FACS binding, cross-reactivity. More on the design: species or system Wistar rats. Here is the method:
(§1) The affinity of various antibodies and ADCs to CCR7 and its species orthologues was determined using FACS. Purified IgGs were titrated to determine EC50 values for binding to cell surface expressed CCR7.
(§2) For this purpose, CCR7 positive cells were harvested (adherent cells were detached with Accutase), washed twice with FACS buffer (PBS/3% FCS/0.02% sodium azide) and diluted to approximately 2×10^6 cells/ml in FACS buffer. All subsequent steps were done on ice to prevent internalization of the receptor. 100 μl cell suspension/well were transferred into 96-well U-bottom plates (Falcon). 2×10^5 cells/well were incubated with a serial dilution of antibody concentrations of the anti-CCR7 antibody-of-interest ranging across several logs, starting at a high of 100 nM for 60 minutes at 4° C., gently shaking. Following incubation, cells were spun down (1200 rpm, 2 min, 4° C.) and washed three times with FACS buffer. […] After a final wash, cells were resuspended in 100 μl of FACS buffer containing 0.2 μg/ml DAPI followed by readout on the flow cytometry machine (BD LSRFortessa Cell Analyzer; Cat #647177). Mean fluorescence intensity (MFI) of live, single cells was calculated in Flowjo 10.0.8 and exported into Graphpad Prism6 for EC50 determination. […]
(In general: Flow cytometry measures light scatter and fluorescence of single cells or particles in a stream.)

The next assay has as its target T1, NIH3T3.mouse CCR7 (Mus musculus, UniProt P47774).
T1 construct: Full length human, cyno and mouse CCR7 genes were synthesized; expressed in transfected cells; host or cells: NIH/3T3 (retroviral transduction)
T1 sequence (P47774 25-378): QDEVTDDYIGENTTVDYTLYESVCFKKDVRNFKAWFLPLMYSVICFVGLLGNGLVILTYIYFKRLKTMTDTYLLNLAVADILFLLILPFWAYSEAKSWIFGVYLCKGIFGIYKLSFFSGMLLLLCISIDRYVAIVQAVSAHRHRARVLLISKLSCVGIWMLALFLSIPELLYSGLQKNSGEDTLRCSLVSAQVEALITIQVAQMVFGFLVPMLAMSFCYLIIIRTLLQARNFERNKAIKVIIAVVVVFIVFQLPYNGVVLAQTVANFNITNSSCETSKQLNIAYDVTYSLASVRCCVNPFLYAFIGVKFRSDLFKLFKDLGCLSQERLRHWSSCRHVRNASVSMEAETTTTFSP
Nature of the assay: FACS binding, cross-reactivity. Here is the method:
as §1
(§3) For this purpose, CCR7 positive cells were harvested (adherent cells were detached with Accutase), washed twice with FACS buffer (PBS/3% FCS/0.02% sodium azide) and diluted to approximately 2×10^6 cells/ml in FACS buffer. All subsequent steps were done on ice to prevent internalization of the receptor. 100 μl cell suspension/well were transferred into 96-well U-bottom plates (Falcon). 2×10^5 cells/well were incubated with a serial dilution of antibody concentrations of the anti-CCR7 antibody-of-interest ranging across several logs, starting at a high of 100 nM for 60 minutes at 4° C., gently shaking. Following incubation, cells were spun down (1200 rpm, 2 min, 4° C.) and washed three times with FACS buffer. A fluorophore-conjugated anti-hFc gamma-APC (Jackson ImmunoResearch) detection antibody was added at 1:400 and samples were incubated for 1 h on ice in the dark, gently shaken. After a final wash, cells were resuspended in 100 μl of FACS buffer containing 0.2 μg/ml DAPI followed by readout on the flow cytometry machine (BD LSRFortessa Cell Analyzer; Cat #647177). Mean fluorescence intensity (MFI) of live, single cells was calculated in Flowjo 10.0.8 and exported into Graphpad Prism6 for EC50 determination.
(§4) In a similar experiment the antibodies were tested for cross-reactivity using engineered isogenic matched cell line sets (NIH3T3 series) and CD4+ T cells, which were purified from several PBMC batches from healthy donors as well as cynomolgus monkeys, Wistar rats and CD-1 mice. […] Only the non-humanized 121G12 antibody is rodent cross-reactive.

The target of another assay is NIH3T3.rat CCR7. Put plainly: FACS binding, cross-reactivity. On the procedure:
as §1, §3, §4

The test system of another assay is Normal T cells. Nature of the assay: ADCC activity on normal T cells (line of Table 6). It is filed as cell-based. The following applies: CCR7 receptor # <1.5K. The text has this: (§5) The ADCC assay was run with non-humanized 506E15 antibody as a representative ADCC-capable anti-CCR7 antibody across various cell lines with a range of CCR7 receptor numbers to determine the minimal receptor density needed for ADCC activity and if there is a sufficient safety margin over normal CCR7+ T cells. The table below summarizes some of the data.
As a consequence all candidates were switched to the Fc silent (DAPA) format to improve overall on-target safety.

The subject of assay [1] is CCR7 and CD20 expressing JVM2 cells. Nature of the assay: surrogate ADCC reporter assay (Jurkat-V158 effector cells). It is filed as cell-based. Particulars: JVM2, CCR7 receptor # 66,500. Here is the method: Capacity of candidate antibodies to mediate ADCC was assessed using a surrogate ADCC reporter assay. CCR7 and CD20 expressing JVM2 cells were used as target cells. JVM2 cells were washed and re-suspended at 8×10^4 cells/ml cells/ml. Effector cells in this assay were a Jurkat cell line stably expressing CD16V158 and an NFAT dependent luciferase reporter (Jurkat-V158); expression of luciferase is a surrogate for canonical ADCC signaling through CD16. Briefly, Jurkat-V158 cells grown in suspension were spun down to remove spent media, the pellet was resuspended in assay media and adjusted to 1.6×10^6 cells/ml cells/mL. Mix equal volumes of effector and target cells to make a master mix of cells yielding a target to effector cell ratio of 1:5 or 1:20. A titration of antibody was diluted in assay media with a final top concentration of 50 ug/mL in the assay well. 12.5 uL of Ab solution was added to a 384 well round bottom plate and then 12.5 ul of the master cell mix was added. Antibody and cells were mixed well by pipetting and incubated for 4 hours at 37° C. in 5% CO2. Following incubation, 15 uL of Bright Glo substrate (Promega #G7572) was added to each well and shaken for 5 min at RT at 1050 rpm. Luminescent signal was read on the Envision plate reader (Perkin Elmer). […]
A general note: In a reporter assay the amount or activity of a reporter protein is the signal.

The target in assay [2] is T2, CCR7 on Mouse CD4+ T cells (Mus musculus, UniProt P47774).
T2 construct: endogenous in cells; host or cells: CD4+ T cells purified from PBMC of CD-1 mice
T2 sequence (P47774 25-378): T1 sequence (P47774 25-378)
Nature of the assay: FACS binding, cross-reactivity. More on the design: species or system CD-1 mice. On the procedure: as §1, §2

In a further assay the test system is ALL-SIL. Put plainly: surrogate ADCC reporter assay (Jurkat-V158 effector cells). It is filed as cell-based. Particulars: CCR7 receptor # 6,200. Here is the method:
(§6) Capacity of candidate antibodies to mediate ADCC was assessed using a surrogate ADCC reporter assay. CCR7 and CD20 expressing JVM2 cells were used as target cells. JVM2 cells were washed and re-suspended at 8×10^4 cells/ml cells/ml. Effector cells in this assay were a Jurkat cell line stably expressing CD16V158 and an NFAT dependent luciferase reporter (Jurkat-V158); expression of luciferase is a surrogate for canonical ADCC signaling through CD16. Briefly, Jurkat-V158 cells grown in suspension were spun down to remove spent media, the pellet was resuspended in assay media and adjusted to 1.6×10^6 cells/ml cells/mL. Mix equal volumes of effector and target cells to make a master mix of cells yielding a target to effector cell ratio of 1:5 or 1:20. A titration of antibody was diluted in assay media with a final top concentration of 50 ug/mL in the assay well. 12.5 uL of Ab solution was added to a 384 well round bottom plate and then 12.5 ul of the master cell mix was added. Antibody and cells were mixed well by pipetting and incubated for 4 hours at 37° C. in 5% CO2. Following incubation, 15 uL of Bright Glo substrate (Promega #G7572) was added to each well and shaken for 5 min at RT at 1050 rpm. Luminescent signal was read on the Envision plate reader (Perkin Elmer).
as §5

The next assay relates to MOTN-1. The assay is described as above. It is filed as cell-based. Particulars: MOTN-1, CCR7 receptor # 64,600. Here is the method: as §6, §5
The subject of a further assay is Jurkat V158. The description is as above. The following applies: Jurkat V158, CCR7 receptor # 3,400. It is filed as cell-based. Here is the method:
as §6, §5

The next assay deals with SR786. Described as above. It is filed as cell-based. Particulars: SR786, CCR7 receptor # 27,800. On the procedure: as §6, §5
For another assay, the system named is CMLT-1. The description is as above. It is filed as cell-based. Particulars: CMLT-1, CCR7 receptor # 29,000. Here is the method:
as §6, §5

The next assay has as its system DEL. The description is as above. It is filed as cell-based. Particulars: CCR7 receptor # 62,000. Here is the method:
as §6, §5

A further assay relates to PEER. The description is as above. The following applies: CCR7 receptor # 8,700. It is filed as cell-based. On the procedure: as §6, §5
A further assay has as its system DND-41. The description is as above. It is filed as cell-based. The following applies: DND-41, CCR7 receptor # 1,700. Here is the method:
as §6, §5

A further assay has as its target NIH3T3.cyno CCR7. Put plainly: FACS binding, cross-reactivity. More on the design: species or system cynomolgus monkey. Here is the method: as §1, §2

B1: 506E15 non-humanized CysMab: non-humanized anti-CCR7 antibody 506E15 in CysMab format (antibody)
heavy: EVMLVESGGGLVKPGGSLKLSCAASGFTFSSYAMSWIRQTPEKRLEWVATISSGGSFTYYPDSVKGRFTISRDNVKNTLYLQMSSLRSEDTAMYYCARRASTVVGTDFDVWGAGTTVTVSSASTKGPSVFPLAPSSKSTSGGTAALGCLVKDYFPCPVTVSWNSGALTSGVHTFPAVLQSSGLYSLSSVVTVPSSSLGTQTYICNVNHKPSNTKVDKRV[human IgG1 Fc with S375C (EU numbers) omitted]
light: DIQMTQSPSSLSASLGERVSLTCRASQDIGSSLNWLQQEPDGTIKRLIYATSSLDSGVPKRFSGSRSGSDYSLTISSLESEDFVVYYCLQYASSPPTFGGGTKLEIKRTVAAPSVFIFPPSDEQLKSGTASVVCLLNNFYPREAKVQWKVDNALQSGNSQESVTEQDSKDSTYSLSSTLTLSKADYEKHKVYACEVTHQGLSSPVTKSFNRGEC
B1: the “Apparent FACS Affinity; EC50 (nM)” value (with CCR7 on Rat CD4+ T cells; in the assay with NIH3T3.mouse CCR7; at NIH3T3.rat CCR7; in [2]) was “No binding” in each case. The “506E15 IC50 (nM), ADCC activity” value in the assay with Normal T cells was “depletion in vivo”. Besides, the “506E15 (max RLU), ADCC activity” value in assay [1] turned out to be 5840 RLU; with ALL-SIL, 3720 RLU; in the assay on MOTN-1 it was 5387 RLU; in the assay on Jurkat V158, 3267 RLU; in the assay with SR786 it was 4067 RLU; in the assay on CMLT-1 it was 4400 RLU. The figures for the “506E15 (max RLU), ADCC activity” value with DEL, with PEER and in the assay on DND-41 were 6480 RLU, 3360 RLU and 3733 RLU, respectively.

B2: 684E12 non-humanized CysMab: non-humanized anti-CCR7 antibody 684E12 in CysMab format (antibody)
heavy: EVHLVESGGGLVKPGGSLKLSCAASGFTFSNFAMSWVRQTPEKRLEWVATISTGGTYTYYPDSVKGRFTISRDNAKKTLYLQMSSLRSEDTAMYYCTRRGYDGVDKWGQGTTLTVSSASTKGPSVFPLAPSSKSTSGGTAALGCLVKDYFPCPVTVSWNSGALTSGVHTFPAVLQSSGLYSLSSVVTVPSSSLGTQTYICNVNHKPSNTKVDKRV[human IgG1 Fc with S375C (EU numbers) omitted]
light: DVVMTQTPLTLSVTIGQPASISCKSGQSLLDSDGKTYLNWFLQRPGQSPKRLIYLVSKLDSGVPDRFTGSGSGTDFTLKISRVEAEDLGVYYCWQGTHFPQTFGGGTKLEIKRTVAAPSVFIFPPSDEQLKSGTASVVCLLNNFYPREAKVQWKVDNALQSGNSQESVTEQDSKDSTYSLSSTLTLSKADYEKHKVYACEVTHQGLSSPVTKSFNRGEC
In the case of B2, the “Apparent FACS Affinity; EC50 (nM)” value on NIH3T3.cyno CCR7 is recorded as “Binding”; with NIH3T3.mouse CCR7 it was “No binding”; at NIH3T3.rat CCR7, “No binding”.

B3: 674J13 non-humanized CysMab: non-humanized anti-CCR7 antibody 674J13 in CysMab format (antibody)
heavy: DVQLQESGPDLVKPSQSLSLTCTVTGYSITSGYSWHWIRQFPGNKLEWMAHIHSSGSTNYNPSLKSRISIIRDTSKNLFFLQLNSVTTEDTATYYCARGGVQAFAYWGQGTLVTVSAASTKGPSVFPLAPSSKSTSGGTAALGCLVKDYFPCPVTVSWNSGALTSGVHTFPAVLQSSGLYSLSSVVTVPSSSLGTQTYICNVNHKPSNTKVDKRV[human IgG1 Fc with S375C (EU numbers) omitted]
light: QIVLTQSPAIMSASPGEKVTMTCSASSSVIYMHWYQQKSGTSPKRWIYDTSKLASGVPARFSGSGSGTSYSLTISSMEAEDAATYYCQQWSSNPLTFGAGTTLELKRTVAAPSVFIFPPSDEQLKSGTASVVCLLNNFYPREAKVQWKVDNALQSGNSQESVTEQDSKDSTYSLSSTLTLSKADYEKHKVYACEVTHQGLSSPVTKSFNRGEC
For B3, the “Apparent FACS Affinity; EC50 (nM)” value (in the assay with CCR7 on Rat CD4+ T cells; with NIH3T3.mouse CCR7; at NIH3T3.rat CCR7; in assay [2]) was “No binding” each time.
